Hit rate of the full screen: of about 340,000 compounds, about 6,900 (2%) were called active. Cut-off read from the data, not from the text of the source: active = inhibition above about 30%; inactive = below that, where a call was filed. The entries are a selection whose mix differs from that of the whole data set. The source gives no active or inactive call for entries shown without one.
Target: D(2) dopamine receptor (Homo sapiens) (UniProt P14416)
Experiment: HTS Assay for Allosteric Antagonists of the Human D2 Dopamine Receptor: Primary Screen for Antagonists; note: 0% is about no effect
Conditions: HEK293 TREx D2 cells, calcium flux, dopamine EC80; at 10 µM; stronger effect = higher value
In short: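 Tetracycline-induced HEK293 T-REx cells expressing D2 force-coupled to calcium signalling were dye-loaded, exposed to compound for 180 s, then challenged with an EC80 of dopamine; calcium flux was followed kinetically for a further 180 s.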

Sequence of UniProt P14416 (P14416 whole entry, looked up): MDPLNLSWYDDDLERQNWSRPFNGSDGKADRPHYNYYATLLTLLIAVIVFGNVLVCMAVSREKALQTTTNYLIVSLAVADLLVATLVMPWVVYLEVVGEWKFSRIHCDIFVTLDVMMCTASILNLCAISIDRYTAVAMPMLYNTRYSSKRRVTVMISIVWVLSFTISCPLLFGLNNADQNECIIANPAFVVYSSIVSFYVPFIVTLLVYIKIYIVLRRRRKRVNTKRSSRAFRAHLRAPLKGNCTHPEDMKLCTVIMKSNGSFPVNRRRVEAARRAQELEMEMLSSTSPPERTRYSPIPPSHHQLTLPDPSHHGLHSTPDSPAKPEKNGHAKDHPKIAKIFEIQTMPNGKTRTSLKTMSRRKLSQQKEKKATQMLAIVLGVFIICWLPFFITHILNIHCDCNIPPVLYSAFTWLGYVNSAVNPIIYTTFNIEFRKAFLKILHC

Row | Structure (SMILES) | inhibition
1 | CCOC(=O)C1CCCN(C(=O)c2[nH]c3ccccc3c2Sc2ccc(Cl)cc2)C1 (stereo unspecified) | 12.8%
2 | Cc1cccc(NC(=O)NCCN2CCN(c3ccccc3)CC2)c1C | active: 57%
3 | Cc1[nH]c2ccccc2c1SCCNC(=O)c1ccccc1F | -0.855%
4 | Cc1ccc(S(=O)(=O)N2CCC(n3c(C)nc4cccnc43)CC2)c(C)c1 | 10.1%
5 | CCOc1ccc(CCNC(=O)c2cc3sc(CC)cc3n2C)cc1OCC | -12.9%
6 | Cc1ccc(S(=O)(=O)c2cn(Cc3ccc(F)cc3)c3cc(N4CCCC4)c(F)cc3c2=O)cc1 | -5.37%
7 | Cc1ccc(CNC(=O)c2ccc(-c3nc(CS(=O)(=O)c4ccc(C)cc4)c(C)o3)cc2)cc1 | -10.1%
8 | O=C(CN1CCN(c2ccccn2)CC1)Nc1ccccc1 | active: 31.4%
9 | CCc1ccccc1NC(=O)C(=O)NCCc1sc(-c2cccc(F)c2)nc1C | -13.1%
10 | O=C(NNC(=S)NCc1ccco1)c1ccc(Cl)s1 | active: 32.7%
11 | COc1ccc(-n2nnc(-c3nc(-c4cccs4)no3)c2N)cc1 | 5.84%
12 | Cc1ccc(C)c(NC(=O)Nc2cccc(-c3cn4cccnc4n3)c2)c1 | -10.8%
13 | CC(C)(C)OC(=O)N1CCC(c2c(C(=O)N3CCOCC3)cnn2-c2cccc(F)c2)CC1 | 5.42%
14 | Clc1cccc(OCCN2CCN(CCOc3cccc(Cl)c3)CC2)c1 | active: 92.6%
15 | Cc1oc(-c2ccccc2F)nc1CSc1nnc(C)n2c1cc1occc12 | 2.5%
16 | COC(=O)c1ccccc1-n1cc2c(c1-c1cccc(C)c1)c(=O)n(C)c(=O)n2C | 0.991%
17 | Cc1nc(Cl)sc1C(=O)Nc1ccc(Cl)cc1 | active: 40.2%
18 | CCOC(=O)c1cnc2ccc(Cl)cc2c1Nc1ccc(N2CCOCC2)cc1 | 10.4%
19 | O=C(Nc1ccc(C(=O)N2CCN(c3ccccc3)CC2)cc1)c1nsc2ccccc12 | 12.3%
20 | COc1ccccc1NC(=O)NCC(c1ccco1)N1CCCCC1 (stereo unspecified) | active: 38.8%
21 | O=C(CSc1nc2c(c(=O)[nH]1)CN(Cc1ccc3c(c1)OCO3)CC2)Nc1ccc(F)c(F)c1 | 21%
22 | Cc1cccc(CCNC(=O)C2CCN(c3nc4ccccc4nc3C(F)(F)F)CC2)c1 | -1.49%
23 | CCC(C)NC(=O)CCc1c(C)nc2cc(-c3ccc(OC)cc3OC)nn2c1C (stereo unspecified) | -1.24%
24 | CCOC(=O)Cn1c(CN2CCN(c3cccc(Cl)c3)CC2)nc2c1c(=O)[nH]c(=O)n2C | active: 30.5%

Row | Structure (SMILES) | inhibition
25 | COc1ccccc1-c1cc2nc(C)c(CCC(=O)Nc3cc(C)ccc3C)c(C)n2n1 | 7.95%
26 | CCc1cccc(NC(=O)c2ccc(CNS(=O)(=O)c3ccc4c(c3)C(C)(C)C(=O)N4C)cc2)c1 | 12.6%
27 | Cc1ccc(-n2ncc3c(NCC(C)C)ncnc32)c(C)c1 | 12.1%
28 | COc1c(Br)cc(Br)cc1/C=N/NC(=O)c1cccnc1 | active: 90.1%
29 | Cc1cccc(-c2nc3ccccc3n3c(-c4ccccc4)c4c(=O)n(C)c(=O)n(C)c4c23)c1 | 25.1%
30 | Cc1ccc(CNC(=O)CCCn2c(=O)c3ccccc3n(Cc3ccc(Cl)cc3)c2=O)cc1 | 5.45%
31 | Cc1ccc(CNC(=O)CCC(=O)N2CCSc3ccccc32)cc1 | -18.5%
32 | COc1ccc(CCNC(=O)Cn2cc(C(=O)c3ccc(F)cc3)c(=O)c3ccc(C)nc32)cc1OC | 2.1%
33 | CCOc1ccc(-c2noc(CSc3nnc(Cc4ccccc4)n3-c3cccc(C)c3)n2)cc1 | -2.31%
34 | Cc1ccc(-c2nc3cc(C(C)C)ccc3o2)cc1NC(=O)c1cc([N+](=O)[O-])ccc1N1CCOCC1 | -1.29%
35 | S=C(Nc1cc(Cl)cc(Cl)c1)NC1CCN(Cc2ccccc2)CC1 | active: 72.2%
36 | COc1ccc(OC)c(/C=C/C(=O)N(C)CC(=O)Nc2ccc(N3CCOCC3)cc2)c1 | active: 40.4%
37 | COCCCNC(=O)C1CCCN(c2nn3cc(-c4ccc(C)cc4)nc3s2)C1 (stereo unspecified) | 3.69%
38 | CC(C)(C)C(=O)Cn1c(=O)n(-c2ccc(Cl)c(Cl)c2)c(=O)c2c3c(sc21)CCCC3 | -12.9%
39 | CS(=O)(=O)N1CCC(C(=O)N2CCN(c3ccccc3)CC2)CC1 | active: 47.3%
40 | Cc1ccc(OCCNC(=O)CCNS(=O)(=O)c2ccc(C)cc2)cc1 | active: 30.3%
41 | COCc1cc(C)nc2sc(C(=O)Nc3cc(C)ccc3F)c(N)c12 | -2.55%
42 | COc1cc(Cl)c(C)cc1NC(=O)c1cnc2c(-c3cccc(C)c3)c(C)nn2c1C | 14%
43 | Cc1ccsc1CN1CCc2nc(N3CCN(c4ccccc4F)CC3)ncc2C1 | -17.3%
44 | CNC(=O)c1ccc(CSc2nc3ccncc3n2Cc2ccc(C)cc2)cc1 | 13.1%
45 | CCCN(C(=O)Cn1cc(S(=O)(=O)N2CCN(c3ccccc3F)CC2)c2ccccc2c1=O)c1cccc(C)c1 | 6.5%
46 | COc1cccc(CNC(=O)Cn2c(C)c3cnn(-c4ccccc4)c(=O)c3c2C)c1 | 4.12%
47 | CCOc1ccc(OCC)c(Nc2nc3ccc(Cl)cc3n3cnnc23)c1 | -1.4%
48 | CNC(=O)C1CCN(c2nc3ccccc3nc2C(F)(F)F)CC1 | 3.4%

Row | Structure (SMILES) | inhibition
49 | CCc1ccc(NC(=O)N2CCN(C(=O)c3nsc4ccccc34)CC2)cc1 | -4.97%
50 | O=C(Nc1ccc(C(F)(F)F)cc1)N1CCC(N2CCCCC2)CC1 | 2.39%
51 | Cc1ccccc1CN1CCCN(CC(=O)Nc2ccc3c(c2)OCCO3)S1(=O)=O | 11.1%
52 | COC(=O)c1cc(NC(=O)c2ccc(-c3ccc(Cl)cc3Cl)o2)cc(C(=O)OC)c1 | 1.05%
53 | Cc1cccc(Cn2nnc3c(=O)[nH]c(C4CCN(C(=O)c5ccc(F)cc5)CC4)nc32)c1 | -1.96%
54 | CCOC(=O)c1noc2nc(C)n(Cc3ccc([N+](=O)[O-])cc3)c(=O)c12 | -28.6%
55 | CN1CCN(C(CNC(=O)c2ccccc2)c2ccc3c(c2)OCO3)CC1 (stereo unspecified) | 0.966%
56 | CCOc1ccc(NC(=O)c2c(NC(=O)c3cccs3)sc3c2CCC(C(C)(C)C)C3)cc1 (stereo unspecified) | -28.2%
57 | COc1ccccc1NC(=O)c1cc(S(=O)(=O)NCCC2=CCCCC2)ccc1F | -13.9%
58 | O=C(NCc1cccc(Cl)c1)C1CCCN(c2ncnc3onc(-c4ccc(F)cc4)c23)C1 (stereo unspecified) | -2.87%
59 | CCn1c(=O)cc(SCC(=O)N2CCN(c3ccccc3F)CC2)c2ccccc21 | -9.86%
60 | Cc1ccc2oc(-c3cc(NC(=O)/C=C/c4ccco4)ccc3Cl)nc2c1 | 8.83%
61 | COc1cc2c(cc1OC)C(COc1ccc3c(C)cc(=O)oc3c1)N(C(=O)CC(C)C)CC2 (stereo unspecified) | 12.3%
62 | CC(=O)Nc1nonc1-c1nc2ccccc2n1Cc1ccccc1Br | -5.75%
63 | Brc1ccc2nc(SCCOc3ccccc3)[nH]c2c1 | -17.6%
64 | Cc1ccc2c(c1)N(C(=O)Nc1cccc3c1CCCC3)CC(C)O2 (stereo unspecified) | -8.59%
65 | Cc1cccc(-n2c(-c3ccco3)nc3nc4ccccc4nc32)c1 | active: 69.6%
66 | Nc1c(C(=O)Nc2cccc(C(F)(F)F)c2)c2ccccn2c1C(=O)c1ccccc1 | -10.6%
67 | COc1ccc(OC)c(CN2CCN(C(=O)c3ccc(F)cc3)CC2)c1 | active: 41.2%
68 | O=C(CSc1nnc2[nH]c(=O)cc(-c3ccccc3)n12)Nc1cc(C(F)(F)F)ccc1Cl | -6.94%
69 | CCOc1ccc(NC(=O)CN(C)S(=O)(=O)c2cnc[nH]2)cc1 | 8.93%
70 | Cc1nc2ccccc2c(C)c1C(=O)c1ccccc1 | active: 30.1%
71 | COc1ccc(NC(=O)NC(C)c2c(-n3cccc3)sc3c2CCN(C)C3)c(OC)c1 (stereo unspecified) | -7.34%
72 | Cc1nnc(SCc2ccc(Cl)cc2)c2cc3occc3n12 | -4.25%

Row | Structure (SMILES) | inhibition
73 | Cc1cccc(N2CCN(c3cc(C)nc4c(-c5ccc(Cl)cc5)c(C)nn34)CC2C)c1 (stereo unspecified) | -0.924%
74 | OC(COc1ccccc1)CN1CCC(Cc2ccccc2)CC1 (stereo unspecified) | active: 74.4%
75 | O=C(CCN1C(=O)CSc2ccccc21)Nc1ccc(C(F)(F)F)cc1 | active: 88.1%
76 | CCCNc1ncnc2onc(C)c12 | 0.716%
77 | Cc1ccc(C(=O)n2nc(C)c(S(=O)(=O)N3CCOCC3)c2C)cc1 | -26.9%
78 | COc1ccc(-n2nc(C(=O)Nc3ccccc3OC)c3c4ccccc4n(C)c3c2=O)cc1Cl | 1.87%
79 | CC(C)c1cnc2c(c1SCC(=O)Nc1ccccc1C(F)(F)F)c(=O)n(C)c(=O)n2C | 1.38%
80 | Cc1ccc(CSc2nc(-c3cccs3)ccc2C#N)cc1 | 5.32%
81 | COc1cccc(-c2nn(C)c3sc(C(=O)NCCc4ccc(Cl)cc4)cc23)c1 | 0.707%
82 | O=C(CCC(=O)OCC(=O)c1ccc(Cl)cc1)Nc1ccc(Oc2ccccc2)cc1 | 9.25%
83 | CCCn1cc(S(=O)(=O)c2cc(C)ccc2C)c(=O)c2cc(F)c(N3CCOCC3)cc21 | 8.49%
84 | CCc1ccc2occ(CC(=O)Nc3c(C(=O)Nc4ccc(C)cc4)oc4ccccc34)c2c1 | -2.5%
85 | CC(C)=CCN1CCN(Cc2c[nH]c3ccccc23)CC1CCO (stereo unspecified) | active: 47.3%
86 | Cc1ccc(-n2nnnc2CNC(=O)c2ccccc2S(C)(=O)=O)cc1C | 15.3%
87 | FC(F)(F)c1cc(-c2ccccc2)nc2cc(-c3ccc(Br)cc3)nn12 | 2.73%
88 | Cc1cccc(C(=O)NC2CCN(CC(=O)NCc3ccccc3F)CC2)c1 | active: 41.6%
89 | COc1ccc(-c2cn3nc(N4CCCC(C(=O)Nc5ccc(C)c(C)c5)C4)sc3n2)cc1 (stereo unspecified) | -15.1%
90 | O=C(Nc1cc2c(cc1C(=O)c1ccccc1Cl)OCCO2)c1ccc(Br)cc1 | 10.8%
91 | Cc1nc2c(-c3ccccc3)c(C)nn2c(C)c1CCC(=O)NCc1ccccc1Cl | -11.7%
92 | CCC(=O)N1c2nc(-c3ccco3)nn2C2(CCCCC2)[C@@H]2CCCC[C@@H]21 | 4.54%
93 | Cc1ccc(CSc2nc3cccnc3n2Cc2ccc(C(=O)NCCc3ccccc3)cc2)cc1 | 1.28%
94 | O=C(c1cccc(Br)c1)N1CCN(Cc2cc(=O)n3nc(-c4ccccc4)sc3n2)CC1 | 3.09%
95 | CCS(=O)(=O)N1CCc2cc(C(=O)Nc3cccc(Cl)c3C)ccc21 | -2.48%
96 | CCOC(=O)c1c(C)[nH]c(C)c1C(=O)COC(=O)c1ccc(S(=O)(=O)C(F)F)cc1 | active: 38.6%

Source: PubChem BioAssay AID485344 (National Center for Advancing Translational Sciences (NCATS), 2010)
